To fix the notation:
T1: RBFOX1 RRM (Homo sapiens, UniProt Q9NWB1 109-208)
T1 sequence: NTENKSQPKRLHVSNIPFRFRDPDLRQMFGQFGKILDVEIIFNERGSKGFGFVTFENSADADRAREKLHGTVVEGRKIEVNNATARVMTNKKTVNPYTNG

B1: AUACUCG (DNA:RNA)
RNA: GGGAGACCGGAAUUCAGAUUGUCCAUACUCGUUAAAUCCCGUCGUAGCCACCA
DNA 1: CAATCTGAATTCCGGTCTCCC
DNA 2: TGGTGGCTACGACGGGATT
B2: CGAGGCC (DNA:RNA)
RNA: B1 RNA with A25C, U26G, C28G, U29G, G31C
DNA 1: CAATCTGAATTCCGGTCTCCC
DNA 2: TGGTGGCTACGACGGGATT
B3: UGAAAGU (DNA:RNA)
RNA: B1 RNA with A25U, U26G, C28A, U29A, C30G, G31U
DNA 1: CAATCTGAATTCCGGTCTCCC
DNA 2: TGGTGGCTACGACGGGATT
B4: UUAUAGU (DNA:RNA)
RNA: B1 RNA with A25U, C28U, U29A, C30G, G31U
DNA 1: CAATCTGAATTCCGGTCTCCC
DNA 2: TGGTGGCTACGACGGGATT
B5: CAGCGGA (DNA:RNA)
RNA: B1 RNA with A25C, U26A, A27G, U29G, C30G, G31A
DNA 1: CAATCTGAATTCCGGTCTCCC
DNA 2: TGGTGGCTACGACGGGATT
B6: ACUGAUC (DNA:RNA)
RNA: B1 RNA with U26C, A27U, C28G, U29A, C30U, G31C
DNA 1: CAATCTGAATTCCGGTCTCCC
DNA 2: TGGTGGCTACGACGGGATT
B7: ACUCGGA (DNA:RNA)
RNA: B1 RNA with U26C, A27U, U29G, C30G, G31A
DNA 1: CAATCTGAATTCCGGTCTCCC
DNA 2: TGGTGGCTACGACGGGATT
B8: GGCCCUU (DNA:RNA)
RNA: B1 RNA with A25G, U26G, A27C, U29C, C30U, G31U
DNA 1: CAATCTGAATTCCGGTCTCCC
DNA 2: TGGTGGCTACGACGGGATT
B9: AGAUUCU (DNA:RNA)
RNA: B1 RNA with U26G, C28U, G31U
DNA 1: CAATCTGAATTCCGGTCTCCC
DNA 2: TGGTGGCTACGACGGGATT
B10: GUUUCUG (DNA:RNA)
RNA: B1 RNA with A25G, A27U, C28U, U29C, C30U
DNA 1: CAATCTGAATTCCGGTCTCCC
DNA 2: TGGTGGCTACGACGGGATT
B11: ACCGCGG (DNA:RNA)
RNA: B1 RNA with U26C, A27C, C28G, U29C, C30G
DNA 1: CAATCTGAATTCCGGTCTCCC
DNA 2: TGGTGGCTACGACGGGATT
B12: GGCGCAC (DNA:RNA)
RNA: GGGAGACCGGAAUUCAGAUUGUCCGGCGCACUUAAAUCCCGUCGUAGCCACCA
DNA 1: CAATCTGAATTCCGGTCTCCC
DNA 2: TGGTGGCTACGACGGGATT
B13: UUGAUAU (DNA:RNA)
RNA: B1 RNA with A25U, A27G, C28A, C30A, G31U
DNA 1: CAATCTGAATTCCGGTCTCCC
DNA 2: TGGTGGCTACGACGGGATT
B14: GUAUCGU (DNA:RNA)
RNA: B1 RNA with A25G, C28U, U29C, C30G, G31U
DNA 1: CAATCTGAATTCCGGTCTCCC
DNA 2: TGGTGGCTACGACGGGATT
B15: UCUUUGU (DNA:RNA)
RNA: B1 RNA with A25U, U26C, A27U, C28U, C30G, G31U
DNA 1: CAATCTGAATTCCGGTCTCCC
DNA 2: TGGTGGCTACGACGGGATT
B16: AUAUAUC (DNA:RNA)
RNA: B1 RNA with C28U, U29A, C30U, G31C
DNA 1: CAATCTGAATTCCGGTCTCCC
DNA 2: TGGTGGCTACGACGGGATT
B17: UCAAAUG (DNA:RNA)
RNA: B1 RNA with A25U, U26C, C28A, U29A, C30U
DNA 1: CAATCTGAATTCCGGTCTCCC
DNA 2: TGGTGGCTACGACGGGATT
B18: AGUGGUG (DNA:RNA)
RNA: B1 RNA with U26G, A27U, C28G, U29G, C30U
DNA 1: CAATCTGAATTCCGGTCTCCC
DNA 2: TGGTGGCTACGACGGGATT
B19: UGGCGUA (DNA:RNA)
RNA: B1 RNA with A25U, U26G, A27G, U29G, C30U, G31A
DNA 1: CAATCTGAATTCCGGTCTCCC
DNA 2: TGGTGGCTACGACGGGATT
B20: UGUUUGG (DNA:RNA)
RNA: B1 RNA with A25U, U26G, A27U, C28U, C30G
DNA 1: CAATCTGAATTCCGGTCTCCC
DNA 2: TGGTGGCTACGACGGGATT
B21: GCCUUAA (DNA:RNA)
RNA: B12 RNA with G26C, G28U, C29U, C31A
DNA 1: CAATCTGAATTCCGGTCTCCC
DNA 2: TGGTGGCTACGACGGGATT
B22: ACCAUAA (DNA:RNA)
RNA: B1 RNA with U26C, A27C, C28A, C30A, G31A
DNA 1: CAATCTGAATTCCGGTCTCCC
DNA 2: TGGTGGCTACGACGGGATT
B23: UACAUAG (DNA:RNA)
RNA: B1 RNA with A25U, U26A, A27C, C28A, C30A
DNA 1: CAATCTGAATTCCGGTCTCCC
DNA 2: TGGTGGCTACGACGGGATT
B24: UGGUGCA (DNA:RNA)
RNA: B1 RNA with A25U, U26G, A27G, C28U, U29G, G31A
DNA 1: CAATCTGAATTCCGGTCTCCC
DNA 2: TGGTGGCTACGACGGGATT
B25: UCAAGAC (DNA:RNA)
RNA: B12 RNA with G25U, G26C, C27A, G28A, C29G
DNA 1: CAATCTGAATTCCGGTCTCCC
DNA 2: TGGTGGCTACGACGGGATT
B26: GGGCCCA (DNA:RNA)
RNA: B12 RNA with C27G, G28C, A30C, C31A
DNA 1: CAATCTGAATTCCGGTCTCCC
DNA 2: TGGTGGCTACGACGGGATT
B27: CAGAUUA (DNA:RNA)
RNA: B1 RNA with A25C, U26A, A27G, C28A, C30U, G31A
DNA 1: CAATCTGAATTCCGGTCTCCC
DNA 2: TGGTGGCTACGACGGGATT
B28: AGUCCGA (DNA:RNA)
RNA: B1 RNA with U26G, A27U, U29C, C30G, G31A
DNA 1: CAATCTGAATTCCGGTCTCCC
DNA 2: TGGTGGCTACGACGGGATT
B29: AGAUCUG (DNA:RNA)
RNA: B1 RNA with U26G, C28U, U29C, C30U
DNA 1: CAATCTGAATTCCGGTCTCCC
DNA 2: TGGTGGCTACGACGGGATT
B30: GUCCUCA (DNA:RNA)
RNA: B1 RNA with A25G, A27C, G31A
DNA 1: CAATCTGAATTCCGGTCTCCC
DNA 2: TGGTGGCTACGACGGGATT
B31: GUGUAAG (DNA:RNA)
RNA: B1 RNA with A25G, A27G, C28U, U29A, C30A
DNA 1: CAATCTGAATTCCGGTCTCCC
DNA 2: TGGTGGCTACGACGGGATT

Positions count from the first letter of the chain named. Some of the results follow.

In this assay the target is T1, RBFOX1 RRM. Put plainly: EMSA; HiTS-Eq, 1 nM pool, 10 min; buffer printed only for the single-RNA assays: 10 mM Tris pH 7.5, 150 mM NaCl, 3.4 mM EDTA, 0.001% NP-40, 30 C. The settings on record: tags: His6 N-terminal (pET28a); label: 5' 32P. The method in brief: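 Purified wild-type or mutant RbFox RRM at increasing concentrations was equilibrated with 1 nM of 5′-radiolabelled RNA carrying 7 randomized nucleotides for 10 min in 50 µL. Unbound RNA was separated by 8% native PAGE and sequenced. Relative association constants came from read-count changes of each RNA species compared with the control reaction, normalised to the cognate motif.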
With B1, the binding signal was 0.00652 KA relative to UGCAUGU.
For B2, the binding signal is 0.01 KA relative to UGCAUGU.
B3: the binding signal is 0.0181 KA relative to UGCAUGU.
Under B4 stands 0.00868 KA relative to UGCAUGU; under B5, 0.00779 KA relative to UGCAUGU; under B6, 0.00911 KA relative to UGCAUGU.
The result for B7 reads 0.00522 KA relative to UGCAUGU; that for B8, 0.0136 KA relative to UGCAUGU.
In the case of B9, the binding signal was 0.00817 KA relative to UGCAUGU.
On to B10, for which the binding signal is 0.0265 KA relative to UGCAUGU.
With B11, the binding signal is 0.0113 KA relative to UGCAUGU.
The result for B12 reads 0.00838 KA relative to UGCAUGU.
B13: the binding signal was 0.00929 KA relative to UGCAUGU.
For B14, the binding signal was 0.0117 KA relative to UGCAUGU.
Regarding B15, the binding signal was 0.0208 KA relative to UGCAUGU.
For B16, the binding signal is 0.00202 KA relative to UGCAUGU.
In the case of B17, the binding signal is 0.00279 KA relative to UGCAUGU.
The result for B18 reads 0.0163 KA relative to UGCAUGU; that for B19, 0.0143 KA relative to UGCAUGU.
Under B20 stands 0.0271 KA relative to UGCAUGU; under B21, 0.00672 KA relative to UGCAUGU.
As for B22, the binding signal was 0.000628 KA relative to UGCAUGU.
In the case of B23, the binding signal is 0.0117 KA relative to UGCAUGU.
For the molecule B24, the binding signal is 0.0327 KA relative to UGCAUGU.
Under B25 stands 0.00462 KA relative to UGCAUGU.
Regarding B26, the binding signal was 0.0188 KA relative to UGCAUGU.
For the molecule B27, the binding signal was 0.00255 KA relative to UGCAUGU.
B28: the binding signal is 0.0121 KA relative to UGCAUGU.
Under B29 stands 0.0129 KA relative to UGCAUGU; under B30, 0.00402 KA relative to UGCAUGU; under B31, 0.0113 KA relative to UGCAUGU.

(Values after publication PMC9911399, “Two distinct binding modes provide the RNA-binding protein RbFox with extraordinary sequence specificity”.)
